Laboratory results from patent publication US20250101074A1 (Affibody, published 2025).
Numbering of substitutions follows the chain as printed.

Tests used:
human IL-17A [1] = biological target: T1, human IL-17A (human, UniProt Q16552 20-155, limits assumed); test: cell-based or functional assay
T1 sequence: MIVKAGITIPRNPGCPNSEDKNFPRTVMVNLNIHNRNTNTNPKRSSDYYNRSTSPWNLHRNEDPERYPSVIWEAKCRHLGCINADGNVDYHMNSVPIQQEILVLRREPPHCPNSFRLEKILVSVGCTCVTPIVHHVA

human IL-17A [2] = biological target: T1, human IL-17A; test: SPR (Biacore), immobilized hIL-17A, 1:1 model
Protocol: One flow cell surface on the chip was activated and deactivated for use as blank during analyte injections. In the kinetic experiment, HBS-EP was used as running buffer and the flow rate was 50 μl/min. […] Kinetic constants were calculated from the sensorgrams using the Langmuir 1:1 model of BiaEvaluation software 4.1 (GE Healthcare).

human IL-17A [3] = biological target: T1, human IL-17A; test: ELISA, captured periplasmic Z-ABD, titrated b-hIL-17A
Protocol: Data were analyzed using GraphPad Prism 5 and non-linear regression, and EC50 values (the half maximal effective concentration) were calculated.

human IL-17A [4] = biological target: T1, human IL-17A; test: cell-based or functional assay; remark: listed apart in the source

B1: His6-Z10241 (designed binder)
chain: MGSSHHHHHHLQVDAKYAKEADDAAVEIADLPNLTWDQWYAFISKLRDDPSQSSELLSEAKKLNDSQAPKVD
IC50, IL-17A induced IL-6 production, NHDF cells (human IL-17A [1]): 5.3 nM | Kd (human IL-17A [2]): 2.2 nM | koff (human IL-17A [2]): 0.0012 s⁻¹ | kon (human IL-17A [2]): 520000 M⁻¹ s⁻¹

B2: His6-Z10718 (designed binder)
chain: B1 chain with Y40H, S44Q
IC50, IL-17A induced IL-6 production, NHDF cells (human IL-17A [1]): 28 nM

B3: His6-Z10681 (designed binder)
chain: B1 chain with D23E, D30E, S44R
IC50, IL-17A induced IL-6 production, NHDF cells (human IL-17A [1]): 25 nM | Kd (human IL-17A [2]): 5.2 nM | koff (human IL-17A [2]): 0.0035 s⁻¹ | kon (human IL-17A [2]): 670000 M⁻¹ s⁻¹

B4: His6-Z12289 (designed binder)
chain: B1 chain with V26Y, D30G, S44E
IC50, IL-17A induced IL-6 production, NHDF cells (human IL-17A [1]): 18 nM | Kd (human IL-17A [2]): 5.3 nM | koff (human IL-17A [2]): 0.0033 s⁻¹ | kon (human IL-17A [2]): 620000 M⁻¹ s⁻¹

B5: His6-Z12275 (designed binder)
chain: B1 chain with Y40F, S44N
IC50, IL-17A induced IL-6 production, NHDF cells (human IL-17A [1]): 4.8 nM | Kd (human IL-17A [2]): 2 nM | koff (human IL-17A [2]): 0.0011 s⁻¹ | kon (human IL-17A [2]): 520000 M⁻¹ s⁻¹

B6: His6-Z12192 (designed binder)
chain: B1 chain with D37A, Y40E
IC50, IL-17A induced IL-6 production, NHDF cells (human IL-17A [1]): 28 nM | Kd (human IL-17A [2]): 12 nM | koff (human IL-17A [2]): 0.0056 s⁻¹ | kon (human IL-17A [2]): 460000 M⁻¹ s⁻¹

B7: His6-Z10462 (designed binder)
chain: B1 chain with D23E, S44Q
IC50, IL-17A induced IL-6 production, NHDF cells (human IL-17A [1]): 6.6 nM

B8: His6-Z12264 (designed binder)
chain: B1 chain with V26Y, D30F, Y40W, S44Q
IC50, IL-17A induced IL-6 production, NHDF cells (human IL-17A [1]): 4.4 nM | Kd (human IL-17A [2]): 0.93 nM | koff (human IL-17A [2]): 0.00055 s⁻¹ | kon (human IL-17A [2]): 600000 M⁻¹ s⁻¹

B9: His6-Z12081 (designed binder)
chain: B1 chain with V26L, Y40W
IC50, IL-17A induced IL-6 production, NHDF cells (human IL-17A [1]): 8.1 nM | Kd (human IL-17A [2]): 6.2 nM | koff (human IL-17A [2]): 0.0038 s⁻¹ | kon (human IL-17A [2]): 620000 M⁻¹ s⁻¹

B10: His6-Z10859 (designed binder)
chain: B1 chain with D23F, D30E, S44Q
IC50, IL-17A induced IL-6 production, NHDF cells (human IL-17A [1]): 26 nM | Kd (human IL-17A [2]): 12 nM | koff (human IL-17A [2]): 0.0068 s⁻¹ | kon (human IL-17A [2]): 560000 M⁻¹ s⁻¹

B11: His6-Z12634 (designed binder)
chain: B1 chain with D23R, S44E
IC50, IL-17A induced IL-6 production, NHDF cells (human IL-17A [1]): 9.8 nM | Kd (human IL-17A [2]): 6.3 nM | koff (human IL-17A [2]): 0.0043 s⁻¹ | kon (human IL-17A [2]): 690000 M⁻¹ s⁻¹

B12: His6-Z12059 (designed binder)
chain: B1 chain with V26Y, D30F, Y40F
IC50, IL-17A induced IL-6 production, NHDF cells (human IL-17A [1]): 3.7 nM

B13: His6-Z12060 (designed binder)
chain: B1 chain with D23A, D30E, Y40W, S44N
IC50, IL-17A induced IL-6 production, NHDF cells (human IL-17A [1]): 7.9 nM | Kd (human IL-17A [2]): 4.3 nM | koff (human IL-17A [2]): 0.0033 s⁻¹ | kon (human IL-17A [2]): 750000 M⁻¹ s⁻¹

B14: His6-Z12522 (designed binder)
chain: B1 chain with D23R, Y40W, S44E
IC50, IL-17A induced IL-6 production, NHDF cells (human IL-17A [1]): 10 nM | Kd (human IL-17A [2]): 6.2 nM | koff (human IL-17A [2]): 0.0044 s⁻¹ | kon (human IL-17A [2]): 710000 M⁻¹ s⁻¹

B15: His6-Z10534 (designed binder)
chain: B1 chain with D37A, S44G
IC50, IL-17A induced IL-6 production, NHDF cells (human IL-17A [1]): 6.5 nM

B16: His6-Z10675 (designed binder)
chain: B1 chain with Y40F, S44Q
IC50, IL-17A induced IL-6 production, NHDF cells (human IL-17A [1]): 5.3 nM | Kd (human IL-17A [2]): 1.9 nM | koff (human IL-17A [2]): 0.0011 s⁻¹ | kon (human IL-17A [2]): 570000 M⁻¹ s⁻¹

B17: His6-Z12115 (designed binder)
chain: B1 chain with V26Y, D30Y, S44Q
IC50, IL-17A induced IL-6 production, NHDF cells (human IL-17A [1]): 3 nM

B18: His6-Z10722 (designed binder)
chain: B1 chain with V26L, D30E, D37V, S44Q
IC50, IL-17A induced IL-6 production, NHDF cells (human IL-17A [1]): 35 nM

B19: His6-Z12481 (designed binder)
chain: B1 chain with Y40W, S44L
IC50, IL-17A induced IL-6 production, NHDF cells (human IL-17A [1]): 3 nM | Kd (human IL-17A [2]): 1.7 nM | koff (human IL-17A [2]): 0.00089 s⁻¹ | kon (human IL-17A [2]): 520000 M⁻¹ s⁻¹

B20: His6-Z12077 (designed binder)
chain: B1 chain with D23L, Y40W, S44Q
IC50, IL-17A induced IL-6 production, NHDF cells (human IL-17A [1]): 5.5 nM | Kd (human IL-17A [2]): 3.1 nM | koff (human IL-17A [2]): 0.002 s⁻¹ | kon (human IL-17A [2]): 650000 M⁻¹ s⁻¹

B21: His6-Z12180 (designed binder)
chain: B1 chain with D30A, Y40W, S44G
IC50, IL-17A induced IL-6 production, NHDF cells (human IL-17A [1]): 4.3 nM

B22: His6-Z10863 (designed binder)
chain: B1 chain with D23Q, D37A, S44Q
IC50, IL-17A induced IL-6 production, NHDF cells (human IL-17A [1]): 8.5 nM | Kd (human IL-17A [2]): 3 nM | koff (human IL-17A [2]): 0.0025 s⁻¹ | kon (human IL-17A [2]): 830000 M⁻¹ s⁻¹

B23: His6-Z12211 (designed binder)
chain: B1 chain with D23E, Y40W, S44N
IC50, IL-17A induced IL-6 production, NHDF cells (human IL-17A [1]): 2.9 nM | Kd (human IL-17A [2]): 2.4 nM | koff (human IL-17A [2]): 0.0014 s⁻¹ | kon (human IL-17A [2]): 580000 M⁻¹ s⁻¹

B24: His6-Z10566 (designed binder)
chain: B1 chain with V26I, D30S, S44G
IC50, IL-17A induced IL-6 production, NHDF cells (human IL-17A [1]): 9.6 nM | Kd (human IL-17A [2]): 9.3 nM | koff (human IL-17A [2]): 0.0057 s⁻¹ | kon (human IL-17A [2]): 610000 M⁻¹ s⁻¹

B25: His6-Z12256 (designed binder)
chain: B1 chain with S44A
IC50, IL-17A induced IL-6 production, NHDF cells (human IL-17A [1]): 4.4 nM | Kd (human IL-17A [2]): 3.4 nM | koff (human IL-17A [2]): 0.0012 s⁻¹ | kon (human IL-17A [2]): 350000 M⁻¹ s⁻¹

B26: His6-Z12163 (designed binder)
chain: B1 chain with D23Q, V26Y, D30F, Y40F, S44N
IC50, IL-17A induced IL-6 production, NHDF cells (human IL-17A [1]): 7 nM | Kd (human IL-17A [2]): 2.2 nM | koff (human IL-17A [2]): 0.0016 s⁻¹ | kon (human IL-17A [2]): 730000 M⁻¹ s⁻¹

B27: His6-Z12078 (designed binder)
chain: B1 chain with V26Y, D30Y, Y40F, S44T
IC50, IL-17A induced IL-6 production, NHDF cells (human IL-17A [1]): 4.5 nM | Kd (human IL-17A [2]): 1.8 nM | koff (human IL-17A [2]): 0.00081 s⁻¹ | kon (human IL-17A [2]): 450000 M⁻¹ s⁻¹

B28: His6-Z12073 (designed binder)
chain: B1 chain with S44T
IC50, IL-17A induced IL-6 production, NHDF cells (human IL-17A [1]): 4 nM | Kd (human IL-17A [2]): 2.3 nM | koff (human IL-17A [2]): 0.0012 s⁻¹ | kon (human IL-17A [2]): 490000 M⁻¹ s⁻¹

B29: His6-Z12344 (designed binder)
chain: B1 chain with D30Y, Y40W, S44R
IC50, IL-17A induced IL-6 production, NHDF cells (human IL-17A [1]): 4.8 nM | Kd (human IL-17A [2]): 0.92 nM | koff (human IL-17A [2]): 0.00066 s⁻¹ | kon (human IL-17A [2]): 710000 M⁻¹ s⁻¹

B30: His6-Z10433 (designed binder)
chain: B1 chain with V26F, D30A, S44I
IC50, IL-17A induced IL-6 production, NHDF cells (human IL-17A [1]): 14 nM | Kd (human IL-17A [2]): 6.4 nM | koff (human IL-17A [2]): 0.0031 s⁻¹ | kon (human IL-17A [2]): 470000 M⁻¹ s⁻¹

B31: His6-Z12498 (designed binder)
chain: B1 chain with V26Y, D30S, Y40W, S44G
IC50, IL-17A induced IL-6 production, NHDF cells (human IL-17A [1]): 11 nM | Kd (human IL-17A [2]): 3.8 nM | koff (human IL-17A [2]): 0.0023 s⁻¹ | kon (human IL-17A [2]): 600000 M⁻¹ s⁻¹

B32: His6-Z12283 (designed binder)
chain: B1 chain with V26Y, D30F, D37E, Y40F, S44D
IC50, IL-17A induced IL-6 production, NHDF cells (human IL-17A [1]): 6.9 nM | Kd (human IL-17A [2]): 3.3 nM | koff (human IL-17A [2]): 0.0018 s⁻¹ | kon (human IL-17A [2]): 550000 M⁻¹ s⁻¹

B33: Z10807, periplasmic ABD fusion (designed binder)
chain: AQHDEALEVDAKYAKEADEAAVEIAELPNLTWDQWYAFIGKLRDDPSQSSELLSEAKKLNDSQAPKVDYVLAEAKVLANRELDKYGVSDYYKNLINNAKTVEGVKALIDEILAALPYVPG
notes: domain: GA3
EC50 (human IL-17A [3]): 0.6 nM

B34: Z10857, periplasmic ABD fusion (designed binder)
chain: B33 chain with E19D, E26A, G40Q
notes: domain: GA3
EC50 (human IL-17A [3]): 0.45 nM

B35: Z10863, periplasmic ABD fusion (designed binder)
chain: B33 chain with E19Q, E26D, D33A, G40Q
notes: domain: GA3
EC50 (human IL-17A [3]): 0.45 nM

B36: Z10914, periplasmic ABD fusion (designed binder)
chain: B33 chain with E26D, Y36F, G40Q
notes: domain: GA3
EC50 (human IL-17A [3]): 0.51 nM

B37: Z10858, periplasmic ABD fusion (designed binder)
chain: B33 chain with E19D, D33A, Y36F
notes: domain: GA3
EC50 (human IL-17A [3]): 0.52 nM

B38: Z10844, periplasmic ABD fusion (designed binder)
chain: B33 chain with E19N, V22M, E26D, Y36F, G40Q
notes: domain: GA3
EC50 (human IL-17A [3]): 0.75 nM

B39: Z10859, periplasmic ABD fusion (designed binder)
chain: B33 chain with E19F, G40Q
notes: domain: GA3
EC50 (human IL-17A [3]): 0.69 nM

B40: ZAZ3174 (designed binder)
chain: VDAKYAKEADQAAMEIATLPNLTWDQWFAFIAKLRDDPSQSSELLSEAKKLNDSQAPKGAPGGGGSGGGGSGGGGSGGGGSTSLAEAKEAANAELDSYGVSDFYKRLIDKAKTVEGVEALKDAILAALPGTGGGGSGGGGSGGGGSGGGGSPRVDAKYAKEADQAAMEIATLPNLTWDQWFAFIAKLRDDPSQSSELLSEAKKLNDSQAPK
IC50, IL-17A induced IL-6 production, NHDF cells, with HSA (human IL-17A [4]): 0.63 nM
